Measured values from the supplement of paper PMC11417369.
± gives the standard deviation of the averaged measurements. The list shows a part of the results.

tested on: PfAP2-EXP AP2 domain (GST-tagged); experiment: gcPBM binding intensity (ln(normalized median fluorescence intensity)); higher = stronger DNA binding
Method in brief: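 In this array assay, P. falciparum DNA-binding domains with a GST tag, expressed in E. coli, were applied for 1 h to primer-extended double-stranded 36-bp intergenic genomic probes and negative controls on an Agilent 4 × 180k array. Bound protein was visualised with Alexa488 anti-GST antibody at 488 nm. Binding intensity is the highest Masliner-normalised natural-log median intensity across replicate spots of either probe orientation.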

Sequence | gcPBM binding intensity (ln)
ACCTATAAAAAATAATGTACAGGAAGAAATATAAGG [XGTACX_site5822] | 9.04 ± 0.59
ACTATATTTCTATAATGTACAAAAATAAATCATATG [XGTACX_site3337] | 8.49 ± 0.45
AAGATCATATATTCGTGGGTATAAAAAGTTATAATA [TGCATGCA_negctrl_site439] | 8.38 ± 0.57
AGAAATATGTTGAAGCATTTATAATGTAGATATAAG [GTGCAC_negctrl_site640] | 8.52 ± 0.42
AAAAAAAAAAAAAATACACACAAACACAAATTAAAT [CACACA_site5982] | 8.71 ± 0.59
GTAATATTATAATATACACACATAGAATATATATAT [CACACA_site413] | 9.29 ± 0.15
AAAAAAAAAAAAAACACACACATATAACATATTTAA [CACACA_site6745] | 8.46 ± 0.34
TGTTTACACTTTTTTTGTACACATAATTTTATTTGA [XGTACX_site3760] | 8.69 ± 0.3
TATTCTAGTCTGCTTACACACATATTTATATTTATA [CACACA_site7432] | 8.81 ± 0.54
TAATATTTTATTTTTGTTGTGGATCCAAAAAAAAAA [CACACA_negctrl_site846] | 8.32 ± 0.47
CTATATATTTAAAAAAGTACAAATATAAAAATATAT [XGTACX_site676] | 8.74 ± 0.25
TATATATATATATATGTATGCATGTCCTTTTTTATT [TGCATGCA_site344] | 10.1 ± 0.42
TTTTTTTTTTTTGTAGTGCAAATTAAAAATATATGT | 8.44 ± 0.092
ATTTTTTTTAAACGAAGTACAATTTGTGCATTGGAA [XGTACX_site8109] | 8.655 ± 0.078
AATATATGGTTTCATGATATAAAATTCAATTTAATG [GTGCAC_negctrl_site610] | 8.12 ± 0.42
TGTTTATCATATTTGTGTCCTCATTTTTTAGTATCA [XGTACX_site947] | 8.81 ± 0.29
ATTTTTTTTTTTTTTTTTTTTTTTTTTTTTTTATGC [CACACA_negctrl_site1018] | 7.82 ± 0.59
TTATTTCTTCAGAAAAAATTAAAAAATTAAACAATA [CACACA_negctrl_site169] | 8.33 ± 0.4
AAATAAAATTATAATACATGCATACATACATATATA [TGCATGCA_site69] | 8.48 ± 0.44
TATAAATACATACGTACACACAAATATTAAAATATA [CACACA_site5129] | 8.52 ± 0.38
ATGTTACTCAGACACACACACATAAAAAAACAAAAA [CACACA_site3249] | 8.62 ± 0.72
TGTGTTAATATATGAAGTACACAATACACACTAATT [XGTACX_site5469] | 8.8 ± 0.29
TAATATCATTTATGGGGTACCTCCTATTCTTATTTA [XGTACX_site1839] | 8.72 ± 0.39
CGAACTGCACTTTTTAGTACTTAATAATTATTTTTT [XGTACX_site2446] | 8.88 ± 0.2
